# Laboratory results as given in article PMC10668032.
# Some of the results follow. At the low end of the ranking the order means little.
# Target: SIX1-Q177R homeodomain (UniProt Q15475)
# Experiment: universal protein binding microarray
# Conditions: Universal all-10-mer PBM (8x60K, AMADID 030236), 300 nM GST-tagged protein, Alexa Fluor 488 anti-GST; buffer, salt, pH and temperature not stated; high values mean tight binding; most listed sequences are background and not binding sites; double strand, one strand shown
row,Sequence,binding signal [E-score]
1,TATTGGAA,-0.173
2,GCTCCGTA,-0.0898
3,ACCGGCTG,0.174
4,AGAACCCA,-0.165
5,CCCAAGCA,0.00966
6,GGCGTACA,0.283
7,ACTCAGAT,-0.0982
8,ACCGCTAT,0.0115
9,AATGATAG,-0.211
10,AAAGGAAC,-0.0214
11,CAAAAAGG,-0.204
12,CGCCTGAA,-0.0796
13,ACGGTACG,0.101
14,ACGTTCGG,-0.158
15,TAGTAGGA,0.0355
16,AACCGTAT,-0.141
17,ATAAGCCG,-0.217
18,CAATAGGG,0.2
19,GCGAAGAA,-0.176
20,CCAGATCA,0.103
21,ATCATCCC,-0.103
22,CCGTACTA,0.0634
23,AGTTTCGA,-0.125
24,CAGGCATG,-0.0944
25,ATGCGGTG,0.295

row,Sequence,binding signal [E-score]
1,ACTGTTCA,-0.196
2,ATGACTTC,-0.0562
3,CCGAAACC,0.0721
4,AAAGAGGG,0.0524
5,ACCGCACA,0.232
6,AAACTGAG,-0.0216
7,CTCCCGAC,0.153
8,TAACCAGA,0.0951
9,ACCGTCGT,0.0134
10,CATGCTAG,-0.0112
11,AACCATAT,-0.131
12,GCCAATGA,-0.185
13,ATCCTCTC,-0.0711
14,AACCACCA,-0.0577
15,ATTAGAGG,-0.0686
16,CACAGCTA,0.177
17,CCTGGGTC,0.102
18,AGGTCGTA,-0.0087
19,CGCCGGTA,-0.00709
20,CTGCGACC,-0.214
21,ACACGGCT,0.398
22,AGTAGTTC,-0.0409
23,ACGTAGAG,0.156
24,ACCACCCA,0.0766
25,AAGCATAC,0.0346

row,Sequence,binding signal [E-score]
1,AGCGTGGA,-0.183
2,GTTTAATA,-0.085
3,ACTTGGCC,-0.111
4,AAAGTATC,0.0463
5,AACAAGTG,0.172
6,GCCCAAAA,-0.126
7,CCTGATGC,-0.0944
8,ACGCGGGG,0.208
9,ACTCATGG,0.0849
10,TCCGTGAA,-0.0156
11,TGACGGAA,-0.256
12,CGGTAACG,-0.0305
13,CATTAGAA,-0.0077
14,AACGTGCG,-0.144
15,CGAAACAA,-0.127
16,CCCATGAC,0.083
17,ACGATGCA,0.0486
18,AAGTATGA,0.0202
19,ATCAGTTA,-0.0505
20,GGGGGTTA,0.293
21,TAACCTTA,-0.06
22,ACAATAAC,-0.0766
23,GGTGGGTA,0.165
24,GAATTCCC,-0.0586
25,AGCGCTGA,-0.133

row,Sequence,binding signal [E-score]
1,ATCGGGCA,0.195
2,AATCGGTC,-0.072
3,CTCATGGC,0.0288
4,GACCACAA,-0.232
5,TCTCCTAA,-0.103
6,AGACCTGC,-0.275
7,GGTGACAC,0.472
8,CAATGATA,0.0206
9,CACACATG,0.165
10,AGAAGAGA,-0.084
11,GGAATAGA,-0.0365
12,GAATTCAC,-0.253
13,GCCCGCAC,-0.0307
14,AACACTTA,0.328
15,AAACCCAC,0.134
16,AGTAGGCA,-0.0338
17,TACGCTGA,0.0181
18,AACCCTCC,0.121
19,CAACACAA,0.182
20,CAGGCACC,0.11
21,ACGGAGCC,-0.144
22,GTGTTCGA,0.409
23,CGAAGATC,0.000775
24,GCGTTTCC,0.0472
25,AGAAAATC,-0.331

row,Sequence,binding signal [E-score]
1,AGTGTGGG,0.192
2,CAGAGTCA,0.0842
3,CACAACGC,-0.0501
4,CAAGCGAG,-0.056
5,TCACCACA,0.0745
6,ATATGGTA,-0.0982
7,CATAGGGC,-0.139
8,CAGGCAAG,-0.132
9,ATTCCGGA,-0.111
10,GTAGCAAC,-0.0606
11,AGTCATAA,-0.0687
12,AGGCCTTA,-0.333
13,AAGATCAG,-0.0381
14,AATAAACG,-0.195
15,AGGATCAA,0.118
16,CGACTTCC,-0.227
17,CAATAGCC,-0.0953
18,CGCCGAGA,0.0922
19,ACAGGTAA,-0.142
20,CTGAGAAG,-0.198
21,CCGCCCGG,-0.0707
22,CCGTTTAA,-0.0277
23,ACATGAGG,0.0762
24,GATGAGGC,-0.169
25,GGTGTACA,0.482

row,Sequence,binding signal [E-score]
1,CATTTTGA,-0.0786
2,AGCAGTGA,-0.0608
3,CAGTCTTA,-0.0332
4,GGAGCACC,0.268
5,CCAAGCAA,-0.0273
6,AAGATACA,0.121
7,GTATACGA,0.0583
8,ACGACATA,0.0484
9,CTTATGGA,-0.246
10,AGCGTCCT,0.0386
11,ATTAGCGA,0.0318
12,GCTTTAAC,-0.00128
13,AATTTTAG,-0.218
14,AAAGTTTA,-0.0843
15,AGGTGGAC,-0.0742
16,GGTGCTGA,0.218
17,CAGTTTAA,0.026
18,ACAAAGGA,-0.00992
19,ATCAATGG,-0.00189
20,ACACATAG,0.155
21,AGACAGGA,-0.0794
22,ATTCTCAA,-0.212
23,AAGCAACA,0.122
24,CTGACTTA,-0.167
25,ACACCGGG,0.484

row,Sequence,binding signal [E-score]
1,AGGTGGGG,0.12
2,GCTTGCCC,-0.3
3,TGTCAAAA,0.198
4,GGTTCTCA,0.00199
5,CGGCCACC,-0.19
6,CCTCAAAC,0.0403
7,AGTTTCGG,-0.0993
8,ACCATAAG,0.131
9,CTGTGCAA,-0.0723
10,AGAAGAAA,-0.213
11,CTCAAGCC,-0.0506
12,TCAGTTCA,-0.0984
13,GGAGGTCA,-0.0808
14,CAATCCTC,-0.146
15,CTAGGCCA,-0.217
16,AGCTGGGC,-0.144
17,CCGTTGAG,-0.185
18,AGATGCTC,-0.337
19,ACTGTCGG,0.0624
20,AATAAATG,-0.327
21,CGTGAGAC,-0.038
22,CCTCTTCG,-0.107
